# The supplement of paper PMC8728848
# The other results are listed elsewhere or left out.
# B1: GSL-I (Griffonia simplicifolia) (protein)
# chain: FNLPNFWSDVKDNIIFQGDANTTAGTLQLCKTNQYGNPLQYRAGRALYSDPVQLWDNKTGSVASFYTEFTFFLKITGDGPADGLAFFLAPPDSDVKDAGAYLGLFNKSTATQPSKNQVVAVEFDTWKNTDFPEPSYRHIGINVNSIVSVATKRWEDSDIFSGKIATARISYDGSAKILTVVLSYPDGADYILSHSVDLSKNLPNPIRVGISASTGANQFLTVYVLSWRFSSALQSTSVNAAMGPEIIRTVV
# How the values were obtained:
# Experiment in all cases: glycan array binding signal (z-score within array); higher = stronger binding
# Conditions in all cases: glycan notation: IUPAC condensed, linker removed
# [1] = target: Fuc(a1-2)[Gal(a1-3)]Gal(b1-4)GlcNAc(b1-2)Man
# Procedure, shortened: (§1)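 Negative Z-scores can be read as non-binding. The Z-score is calculated within each array and then averaged across arrays of one protein sequence at different concentrations or buffers and across linkers. Arrays, 3228 in all, were curated from the Consortium for Functional Glycomics database and kept only where the protein sequence was available.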
# [2] = target: Fuc(a1-2)[Gal(a1-3)]Gal(b1-4)GlcNAc(b1-2)Man(a1-3)[Fuc(a1-2)[Gal(a1-3)]Gal(b1-4)GlcNAc(b1-2)Man(a1-6)]Man(b1-4)GlcNAc(b1-4)GlcNAc
# Procedure, shortened: as §1
# [3] = target: Fuc(a1-2)[Gal(a1-3)]Gal(b1-4)GlcNAc(b1-2)Man(a1-3)[Fuc(a1-2)[Gal(a1-3)]Gal(b1-4)GlcNAc(b1-2)Man(a1-6)]Man(b1-4)GlcNAc(b1-4)[Fuc(a1-6)]GlcNAc
# Procedure, shortened: as §1
# [4] = target: Fuc(a1-2)[Gal(a1-3)]Gal(b1-4)GlcNAc(b1-3)GalNAc
# Procedure, shortened: as §1
# [5] = target: Fuc(a1-2)[Gal(a1-3)]Gal(b1-4)GlcNAc(b1-3)[Fuc(a1-2)[Gal(a1-3)]Gal(b1-4)GlcNAc(b1-6)]GalNAc
# Procedure, shortened: as §1
# [6] = target: Fuc(a1-2)[Gal(a1-3)]Gal(b1-4)GlcNAc(b1-6)GalNAc
# Procedure, shortened: as §1
# [7] = target: Fuc(a1-2)[Gal(a1-3)]Gal(b1-4)[Fuc(a1-3)]Glc
# Procedure, shortened: as §1
# [8] = target: Fuc(a1-2)[Gal(a1-3)]Gal(b1-4)[Fuc(a1-3)]GlcNAc
# Procedure, shortened: as §1
# [9] = target: Fuc(a1-2)[Gal(a1-3)]Gal(b1-4)[Fuc(a1-3)]GlcNAc(b1-3)GalNAc
# Procedure, shortened: as §1
# [10] = target: Fuc(a1-2)[Gal(a1-4)]Gal(b1-4)GlcNAc
# Procedure, shortened: as §1
# [11] = target: Fuc(a1-2)[GalNAc(a1-3)]Gal
# Procedure, shortened: as §1
# [12] = target: Fuc(a1-2)[GalNAc(a1-3)]Gal(b1-3)GalNAc(a1-3)[Fuc(a1-2)]Gal(b1-4)GlcNAc
# Procedure, shortened: as §1
# [13] = target: Fuc(a1-2)[GalNAc(a1-3)]Gal(b1-3)GalNAc(b1-3)Gal(a1-4)Gal(b1-4)Glc
# Procedure, shortened: as §1
# [14] = target: Fuc(a1-2)[GalNAc(a1-3)]Gal(b1-3)GlcNAc
# Procedure, shortened: as §1
# [15] = target: Fuc(a1-2)[GalNAc(a1-3)]Gal(b1-3)GlcNAc(b1-2)Man(a1-3)[Fuc(a1-2)[GalNAc(a1-3)]Gal(b1-3)GlcNAc(b1-2)Man(a1-6)]Man(b1-4)GlcNAc(b1-4)GlcNAc
# Procedure, shortened: as §1
# [16] = target: Fuc(a1-2)[GalNAc(a1-3)]Gal(b1-3)GlcNAc(b1-2)Man(a1-3)[Fuc(a1-2)[GalNAc(a1-3)]Gal(b1-3)GlcNAc(b1-2)Man(a1-6)]Man(b1-4)GlcNAc(b1-4)[Fuc(a1-6)]GlcNAc
# Procedure, shortened: as §1
# [17] = target: Fuc(a1-2)[GalNAc(a1-3)]Gal(b1-3)GlcNAc(b1-3)GalNAc
# Procedure, shortened: as §1
# [18] = target: Fuc(a1-2)[GalNAc(a1-3)]Gal(b1-3)GlcNAc(b1-6)GalNAc
# Procedure, shortened: as §1
# [19] = target: Fuc(a1-2)[GalNAc(a1-3)]Gal(b1-4)Glc
# Procedure, shortened: as §1
# [20] = target: Fuc(a1-2)[GalNAc(a1-3)]Gal(b1-4)GlcNAc
# Procedure, shortened: as §1
# [21] = target: Fuc(a1-2)[GalNAc(a1-3)]Gal(b1-4)GlcNAc(b1-2)Man
# Procedure, shortened: as §1
# [22] = target: Fuc(a1-2)[GalNAc(a1-3)]Gal(b1-4)GlcNAc(b1-2)Man(a1-3)[Fuc(a1-2)[GalNAc(a1-3)]Gal(b1-4)GlcNAc(b1-2)Man(a1-6)]Man(b1-4)GlcNAc(b1-4)GlcNAc
# Procedure, shortened: as §1
# [23] = target: Fuc(a1-2)[GalNAc(a1-3)]Gal(b1-4)GlcNAc(b1-2)Man(a1-3)[Fuc(a1-2)[GalNAc(a1-3)]Gal(b1-4)GlcNAc(b1-2)Man(a1-6)]Man(b1-4)GlcNAc(b1-4)[Fuc(a1-6)]GlcNAc
# Procedure, shortened: as §1
# [24] = target: Fuc(a1-2)[GalNAc(a1-3)]Gal(b1-4)GlcNAc(b1-3)Gal(b1-4)GlcNAc
# Procedure, shortened: as §1
# [25] = target: Fuc(a1-2)[GalNAc(a1-3)]Gal(b1-4)GlcNAc(b1-3)Gal(b1-4)GlcNAc(b1-3)Gal(b1-4)GlcNAc
# Procedure, shortened: as §1
# [26] = target: Fuc(a1-2)[GalNAc(a1-3)]Gal(b1-4)GlcNAc(b1-3)GalNAc
# Procedure, shortened: as §1
# [27] = target: Fuc(a1-2)[GalNAc(a1-3)]Gal(b1-4)GlcNAc(b1-3)[Fuc(a1-2)[GalNAc(a1-3)]Gal(b1-4)GlcNAc(b1-6)]GalNAc
# Procedure, shortened: as §1
# [28] = target: Fuc(a1-2)[GalNAc(a1-3)]Gal(b1-4)GlcNAc(b1-6)GalNAc
# Procedure, shortened: as §1
# [29] = target: Fuc(a1-2)[GalNAc(a1-3)]Gal(b1-4)[Fuc(a1-3)]GlcNAc
# Procedure, shortened: as §1
# [30] = target: Fuc(a1-2)[GalNAc(a1-3)]Gal(b1-4)[Fuc(a1-3)]GlcNAc(b1-3)GalNAc
# Procedure, shortened: as §1
# [31] = target: Fuc(a1-2)[GalNAc(a1-4)]Gal(b1-4)GlcNAc
# Procedure, shortened: as §1
# [32] = target: Fuc(a1-2)[GalNAc(b1-3)]Gal
# Procedure, shortened: as §1
# Fuc(a1-3)GlcNAc = target: Fuc(a1-3)GlcNAc
# Procedure, shortened: as §1
# [33] = target: Fuc(a1-3)[Gal(b1-4)]Glc6S
# Procedure, shortened: as §1
# [34] = target: Fuc(a1-3)[Gal(b1-4)]GlcNAc
# Procedure, shortened: as §1
# [35] = target: Fuc(a1-3)[Gal(b1-4)]GlcNAc(b1-2)Man
# Procedure, shortened: as §1
# [36] = target: Fuc(a1-3)[Gal(b1-4)]GlcNAc(b1-2)Man(a1-3)[Fuc(a1-3)[Gal(b1-4)]GlcNAc(b1-2)Man(a1-6)]Man(b1-4)GlcNAc(b1-4)GlcNAc
# Procedure, shortened: as §1
# [37] = target: Fuc(a1-3)[Gal(b1-4)]GlcNAc(b1-2)Man(a1-3)[Fuc(a1-3)[Gal(b1-4)]GlcNAc(b1-2)Man(a1-6)]Man(b1-4)GlcNAc(b1-4)[Fuc(a1-6)]GlcNAc
# Procedure, shortened: as §1
# [38] = target: Fuc(a1-3)[Gal(b1-4)]GlcNAc(b1-3)Gal(b1-3)[Fuc(a1-4)]GlcNAc
# Procedure, shortened: as §1
# [39] = target: Fuc(a1-3)[Gal(b1-4)]GlcNAc(b1-3)Gal(b1-4)[Fuc(a1-3)]GlcNAc
# Procedure, shortened: as §1
# [40] = target: Fuc(a1-3)[Gal(b1-4)]GlcNAc(b1-3)Gal(b1-4)[Fuc(a1-3)]GlcNAc(b1-3)Gal(b1-4)[Fuc(a1-3)]GlcNAc
# Procedure, shortened: as §1
# [41] = target: Fuc(a1-3)[Gal(b1-4)]GlcNAc(b1-3)GalNAc
# Procedure, shortened: as §1
# [42] = target: Fuc(a1-3)[Gal(b1-4)]GlcNAc(b1-4)Gal(b1-4)[Fuc(a1-3)]GlcNAc
# Procedure, shortened: as §1
# [43] = target: Fuc(a1-3)[Gal(b1-4)]GlcNAc(b1-4)Gal(b1-4)[Fuc(a1-3)]GlcNAc(b1-4)Gal(b1-4)[Fuc(a1-3)]GlcNAc
# Procedure, shortened: as §1
# [44] = target: Fuc(a1-3)[Gal(b1-4)]GlcNAc(b1-6)GalNAc
# Procedure, shortened: as §1
# [45] = target: Fuc(a1-3)[Gal(b1-4)]GlcNAc(b1-6)[Gal(b1-3)GlcNAc(b1-3)]Gal(b1-4)Glc
# Procedure, shortened: as §1
# [46] = target: Fuc(a1-3)[Gal(b1-4)]GlcNAc6S
# Procedure, shortened: as §1
# [47] = target: Fuc(a1-3)[Gal3S(b1-4)]Glc
# Procedure, shortened: as §1
# [48] = target: Fuc(a1-3)[Gal3S(b1-4)]GlcNAc
# Procedure, shortened: as §1
# [49] = target: Fuc(a1-3)[Gal3S(b1-4)]GlcNAc6S
# Procedure, shortened: as §1
# [50] = target: Fuc(a1-3)[GalNAc(b1-4)]GlcNAc
# Procedure, shortened: as §1
# [51] = target: Fuc(a1-3)[GalNAc(b1-4)]GlcNAc6S
# Procedure, shortened: as §1
# Fuc(a1-4)GlcNAc = target: Fuc(a1-4)GlcNAc
# Procedure, shortened: as §1
# Fuc(b1-3)GlcNAc = target: Fuc(b1-3)GlcNAc
# Procedure, shortened: as §1
# Gal(a1-2)Gal = target: Gal(a1-2)Gal
# Procedure, shortened: as §1
# Gal(a1-3)Gal = target: Gal(a1-3)Gal
# Procedure, shortened: as §1
# Gal(a1-3)Gal(b1-3)GlcNAc = target: Gal(a1-3)Gal(b1-3)GlcNAc
# Procedure, shortened: as §1
# [52] = target: Gal(a1-3)Gal(b1-3)GlcNAc(b1-2)Man
# Procedure, shortened: as §1
# [53] = target: Gal(a1-3)Gal(b1-3)GlcNAc(b1-2)Man(a1-3)[Gal(a1-3)Gal(b1-3)GlcNAc(b1-2)Man(a1-6)]Man(b1-4)GlcNAc(b1-4)GlcNAc
# Procedure, shortened: as §1
# [54] = target: Gal(a1-3)Gal(b1-3)GlcNAc(b1-3)GalNAc
# Procedure, shortened: as §1
binder,measurement,setting,value
B1,glycan array binding signal (z-score),[1],-0.253
same,glycan array binding signal (z-score),[2],0.691
same,glycan array binding signal (z-score),[3],-0.128
same,glycan array binding signal (z-score),[4],-0.175
same,glycan array binding signal (z-score),[5],-0.604
same,glycan array binding signal (z-score),[6],-0.15
same,glycan array binding signal (z-score),[7],-0.11
same,glycan array binding signal (z-score),[8],0.306
same,glycan array binding signal (z-score),[9],0.052
same,glycan array binding signal (z-score),[10],0.336
same,glycan array binding signal (z-score),[11],0.774
same,glycan array binding signal (z-score),[12],-0.239
same,glycan array binding signal (z-score),[13],-0.221
same,glycan array binding signal (z-score),[14],-0.175
same,glycan array binding signal (z-score),[15],-0.248
same,glycan array binding signal (z-score),[16],-0.206
same,glycan array binding signal (z-score),[17],0.545
same,glycan array binding signal (z-score),[18],-0.322
same,glycan array binding signal (z-score),[19],-0.065
same,glycan array binding signal (z-score),[20],0.486
same,glycan array binding signal (z-score),[21],0.033
same,glycan array binding signal (z-score),[22],0.123
same,glycan array binding signal (z-score),[23],-0.155
same,glycan array binding signal (z-score),[24],0.123
same,glycan array binding signal (z-score),[25],0.34
same,glycan array binding signal (z-score),[26],-0.288
same,glycan array binding signal (z-score),[27],0.012
same,glycan array binding signal (z-score),[28],0.92
same,glycan array binding signal (z-score),[29],0.325
same,glycan array binding signal (z-score),[30],-0.031
same,glycan array binding signal (z-score),[31],7.04
same,glycan array binding signal (z-score),[32],-0.188
same,glycan array binding signal (z-score),Fuc(a1-3)GlcNAc,-0.259
same,glycan array binding signal (z-score),[33],-0.16
same,glycan array binding signal (z-score),[34],-0.211
same,glycan array binding signal (z-score),[35],-0.31
same,glycan array binding signal (z-score),[36],-0.232
same,glycan array binding signal (z-score),[37],-0.063
same,glycan array binding signal (z-score),[38],-0.124
same,glycan array binding signal (z-score),[39],-0.17
same,glycan array binding signal (z-score),[40],-0.188
same,glycan array binding signal (z-score),[41],-0.19
same,glycan array binding signal (z-score),[42],-0.311
same,glycan array binding signal (z-score),[43],-0.302
same,glycan array binding signal (z-score),[44],-0.081
same,glycan array binding signal (z-score),[45],-0.173
same,glycan array binding signal (z-score),[46],0.034
same,glycan array binding signal (z-score),[47],-0.14
same,glycan array binding signal (z-score),[48],-0.114
same,glycan array binding signal (z-score),[49],-0.13
same,glycan array binding signal (z-score),[50],0.055
same,glycan array binding signal (z-score),[51],0.107
same,glycan array binding signal (z-score),Fuc(a1-4)GlcNAc,-0.215
same,glycan array binding signal (z-score),Fuc(b1-3)GlcNAc,-0.236
same,glycan array binding signal (z-score),Gal(a1-2)Gal,1.41
same,glycan array binding signal (z-score),Gal(a1-3)Gal,0.597
same,glycan array binding signal (z-score),Gal(a1-3)Gal(b1-3)GlcNAc,0.629
same,glycan array binding signal (z-score),[52],0.712
same,glycan array binding signal (z-score),[53],0.005
same,glycan array binding signal (z-score),[54],-0.059
